Source: patent publication US20060263361A1

Molecular target: recombinant KIR2DL3 protein (entire extracellular domain, produced in E. coli, immobilized) (human) (UniProt P43628)
Experiment: Biacore, KIR2DL3 chip; second Ab injected alone

Chain of UniProt P43628 (P43628 22-245): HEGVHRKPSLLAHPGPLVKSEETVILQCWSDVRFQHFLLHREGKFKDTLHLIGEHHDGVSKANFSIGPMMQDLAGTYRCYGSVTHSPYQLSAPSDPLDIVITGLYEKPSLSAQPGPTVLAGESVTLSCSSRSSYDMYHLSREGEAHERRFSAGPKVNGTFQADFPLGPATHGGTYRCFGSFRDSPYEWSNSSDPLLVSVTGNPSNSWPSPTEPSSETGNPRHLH

Question: With “monoclonal antibody DF200 produced by hybridoma DF200” as the substance, how does the RU, second antibody alone (after first antibody 1-4 F1) read?
Answer: 1140 RU

Question: What about the RU, second antibody alone (after first antibody 1-6 F1) of the same substance?
Answer: 790 RU

Question: What about the RU, second antibody alone (after first antibody 1-6 F5) of the same substance?
Answer: 800 RU

Question: What about the RU, second antibody alone (after first antibody 1-7 F9) of the same substance?
Answer: 770 RU

Entries with a single value are a further part of the results.
